For some assays here: What follows is the remainder of the data, with few or none of the strong results. The entries are a selection whose mix differs from that of the whole data set.
Columns and labels:
[1] = molecular target: Death-associated protein kinase 1 (Homo sapiens) (UniProt P53355); conditions: at 1 µM;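 also: each value is a mean inhibition figure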
[2] = molecular target: T1, Serine/threonine-protein kinase DCLK2 (Homo sapiens) (UniProt Q8N568); conditions: at 0.1 µM
T1 sequence (whole entry): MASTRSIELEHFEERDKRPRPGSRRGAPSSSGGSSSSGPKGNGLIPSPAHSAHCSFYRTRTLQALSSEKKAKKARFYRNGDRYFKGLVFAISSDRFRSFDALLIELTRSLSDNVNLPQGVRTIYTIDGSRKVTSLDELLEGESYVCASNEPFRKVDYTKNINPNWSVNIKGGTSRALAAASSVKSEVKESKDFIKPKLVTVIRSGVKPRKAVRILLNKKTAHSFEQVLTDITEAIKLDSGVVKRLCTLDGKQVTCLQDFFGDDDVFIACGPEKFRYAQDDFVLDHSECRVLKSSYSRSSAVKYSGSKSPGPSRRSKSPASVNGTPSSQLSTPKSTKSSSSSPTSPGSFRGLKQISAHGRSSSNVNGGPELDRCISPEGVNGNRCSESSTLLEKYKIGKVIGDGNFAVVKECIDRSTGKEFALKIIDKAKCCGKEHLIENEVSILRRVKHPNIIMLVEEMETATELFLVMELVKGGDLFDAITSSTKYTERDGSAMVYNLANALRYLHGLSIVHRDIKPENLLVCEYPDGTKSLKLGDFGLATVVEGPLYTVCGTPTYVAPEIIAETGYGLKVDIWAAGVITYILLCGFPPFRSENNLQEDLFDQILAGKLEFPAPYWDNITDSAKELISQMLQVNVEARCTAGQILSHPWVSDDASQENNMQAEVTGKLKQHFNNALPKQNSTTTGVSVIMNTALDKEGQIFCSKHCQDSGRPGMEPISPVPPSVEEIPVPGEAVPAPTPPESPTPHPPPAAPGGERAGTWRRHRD

[3] = molecular target: T1, Serine/threonine-protein kinase DCLK2 (Homo sapiens); conditions: at 1 µM
[4] = molecular target: MAP kinase-activated protein kinase 2 (Homo sapiens) (UniProt P49137); conditions: at 0.1 µM
[5] = molecular target: MAP kinase-activated protein kinase 2 (Homo sapiens) (UniProt P49137); conditions: at 1 µM
[6] = molecular target: MAP kinase-activated protein kinase 3 (Homo sapiens) (UniProt Q16644); conditions: at 0.1 µM
[7] = molecular target: MAP kinase-activated protein kinase 3 (Homo sapiens) (UniProt Q16644); conditions: at 1 µM
[8] = molecular target: Serine/threonine-protein kinase MARK1 (Homo sapiens) (UniProt Q9P0L2); conditions: at 0.1 µM
[9] = molecular target: Serine/threonine-protein kinase MARK1 (Homo sapiens) (UniProt Q9P0L2); conditions: at 1 µM
[10] = molecular target: MAP/microtubule affinity-regulating kinase 3 (Homo sapiens) (UniProt P27448); conditions: at 0.1 µM
[11] = molecular target: MAP/microtubule affinity-regulating kinase 3 (Homo sapiens) (UniProt P27448); conditions: at 1 µM
[12] = molecular target: T2, MAP/microtubule affinity-regulating kinase 4 (Homo sapiens) (UniProt Q96L34); conditions: at 0.1 µM
T2 sequence (whole entry): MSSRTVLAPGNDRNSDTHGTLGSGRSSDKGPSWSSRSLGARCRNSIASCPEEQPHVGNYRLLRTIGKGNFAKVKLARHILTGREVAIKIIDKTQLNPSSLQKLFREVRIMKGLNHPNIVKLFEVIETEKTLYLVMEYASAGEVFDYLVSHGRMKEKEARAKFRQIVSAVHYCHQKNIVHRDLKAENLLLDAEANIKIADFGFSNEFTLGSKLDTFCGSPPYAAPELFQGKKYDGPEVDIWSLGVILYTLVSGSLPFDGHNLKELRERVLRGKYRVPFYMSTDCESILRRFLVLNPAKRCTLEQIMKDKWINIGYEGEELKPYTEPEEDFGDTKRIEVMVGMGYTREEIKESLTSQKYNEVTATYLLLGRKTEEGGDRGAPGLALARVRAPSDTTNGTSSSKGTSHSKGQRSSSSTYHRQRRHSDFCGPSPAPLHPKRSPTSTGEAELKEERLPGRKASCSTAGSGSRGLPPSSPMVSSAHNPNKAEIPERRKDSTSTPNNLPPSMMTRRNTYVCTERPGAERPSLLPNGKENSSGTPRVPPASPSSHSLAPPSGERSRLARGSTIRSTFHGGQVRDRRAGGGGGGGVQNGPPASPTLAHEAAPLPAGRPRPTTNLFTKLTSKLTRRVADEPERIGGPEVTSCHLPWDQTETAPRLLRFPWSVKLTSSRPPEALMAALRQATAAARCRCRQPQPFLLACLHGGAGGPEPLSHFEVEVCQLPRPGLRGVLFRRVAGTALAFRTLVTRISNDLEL

[13] = molecular target: T2, MAP/microtubule affinity-regulating kinase 4 (Homo sapiens); conditions: at 1 µM
[14] = molecular target: Maternal embryonic leucine zipper kinase (Homo sapiens) (UniProt Q14680); conditions: at 0.1 µM
[15] = molecular target: Maternal embryonic leucine zipper kinase (Homo sapiens) (UniProt Q14680); conditions: at 1 µM
[16] = molecular target: MAP kinase-interacting serine/threonine-protein kinase 1 (Homo sapiens) (UniProt Q9BUB5); conditions: at 0.1 µM
[17] = molecular target: MAP kinase-interacting serine/threonine-protein kinase 1 (Homo sapiens) (UniProt Q9BUB5); conditions: at 1 µM
[18] = molecular target: MAP kinase-interacting serine/threonine-protein kinase 2 (Homo sapiens) (UniProt Q9HBH9); conditions: at 0.1 µM
[19] = molecular target: MAP kinase-interacting serine/threonine-protein kinase 2 (Homo sapiens) (UniProt Q9HBH9); conditions: at 1 µM
[20] = molecular target: T3, Serine/threonine-protein kinase MARK2 (Homo sapiens) (UniProt Q7KZI7); conditions: at 0.1 µM;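 also: mean percent inhibition of PAR-1Balpha kinase activity, reported from the GSK PKIS screen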
T3 sequence (whole entry): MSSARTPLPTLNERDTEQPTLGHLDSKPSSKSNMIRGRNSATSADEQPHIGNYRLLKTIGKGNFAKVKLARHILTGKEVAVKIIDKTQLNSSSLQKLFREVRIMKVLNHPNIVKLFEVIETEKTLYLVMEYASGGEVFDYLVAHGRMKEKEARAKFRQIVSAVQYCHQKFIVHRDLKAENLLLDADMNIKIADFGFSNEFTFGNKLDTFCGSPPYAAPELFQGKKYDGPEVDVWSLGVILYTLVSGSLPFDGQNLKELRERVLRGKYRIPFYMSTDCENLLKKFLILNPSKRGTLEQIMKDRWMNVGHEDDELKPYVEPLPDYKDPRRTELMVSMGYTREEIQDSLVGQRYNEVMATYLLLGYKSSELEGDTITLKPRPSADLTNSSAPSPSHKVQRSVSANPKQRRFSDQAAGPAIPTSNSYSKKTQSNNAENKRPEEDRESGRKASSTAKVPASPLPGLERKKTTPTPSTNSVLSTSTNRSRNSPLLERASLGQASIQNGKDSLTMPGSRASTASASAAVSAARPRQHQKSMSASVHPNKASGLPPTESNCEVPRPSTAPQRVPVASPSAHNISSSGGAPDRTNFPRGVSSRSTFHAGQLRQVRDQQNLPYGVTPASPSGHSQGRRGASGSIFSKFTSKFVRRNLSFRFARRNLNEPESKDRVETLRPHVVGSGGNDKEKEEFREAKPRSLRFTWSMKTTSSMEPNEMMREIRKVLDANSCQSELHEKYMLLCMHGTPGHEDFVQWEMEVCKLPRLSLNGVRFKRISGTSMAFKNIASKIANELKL

Sequence of UniProt Q16644 (Q16644 whole entry, looked up): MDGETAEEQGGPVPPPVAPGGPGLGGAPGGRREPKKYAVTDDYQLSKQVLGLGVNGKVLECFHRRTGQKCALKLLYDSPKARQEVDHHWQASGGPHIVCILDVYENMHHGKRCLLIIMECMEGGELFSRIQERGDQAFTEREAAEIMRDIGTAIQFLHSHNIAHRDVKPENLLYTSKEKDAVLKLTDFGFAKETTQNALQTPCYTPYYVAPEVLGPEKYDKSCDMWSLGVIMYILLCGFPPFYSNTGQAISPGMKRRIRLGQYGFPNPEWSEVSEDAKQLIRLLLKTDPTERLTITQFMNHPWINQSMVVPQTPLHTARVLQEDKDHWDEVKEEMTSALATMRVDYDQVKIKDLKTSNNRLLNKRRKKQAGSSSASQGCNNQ
Sequence of UniProt P49137 (P49137 whole entry, looked up): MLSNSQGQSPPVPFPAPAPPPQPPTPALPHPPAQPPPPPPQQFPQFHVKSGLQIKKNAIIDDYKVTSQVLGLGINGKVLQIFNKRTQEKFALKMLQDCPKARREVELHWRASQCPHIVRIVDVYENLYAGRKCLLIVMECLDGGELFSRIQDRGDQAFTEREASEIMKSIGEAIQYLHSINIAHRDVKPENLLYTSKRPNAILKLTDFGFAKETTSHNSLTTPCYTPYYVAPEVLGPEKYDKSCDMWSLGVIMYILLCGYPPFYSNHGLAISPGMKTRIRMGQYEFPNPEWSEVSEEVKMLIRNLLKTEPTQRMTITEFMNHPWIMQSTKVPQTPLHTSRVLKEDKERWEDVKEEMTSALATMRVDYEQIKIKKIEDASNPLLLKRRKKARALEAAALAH
Sequence of UniProt Q9P0L2 (Q9P0L2 whole entry, looked up): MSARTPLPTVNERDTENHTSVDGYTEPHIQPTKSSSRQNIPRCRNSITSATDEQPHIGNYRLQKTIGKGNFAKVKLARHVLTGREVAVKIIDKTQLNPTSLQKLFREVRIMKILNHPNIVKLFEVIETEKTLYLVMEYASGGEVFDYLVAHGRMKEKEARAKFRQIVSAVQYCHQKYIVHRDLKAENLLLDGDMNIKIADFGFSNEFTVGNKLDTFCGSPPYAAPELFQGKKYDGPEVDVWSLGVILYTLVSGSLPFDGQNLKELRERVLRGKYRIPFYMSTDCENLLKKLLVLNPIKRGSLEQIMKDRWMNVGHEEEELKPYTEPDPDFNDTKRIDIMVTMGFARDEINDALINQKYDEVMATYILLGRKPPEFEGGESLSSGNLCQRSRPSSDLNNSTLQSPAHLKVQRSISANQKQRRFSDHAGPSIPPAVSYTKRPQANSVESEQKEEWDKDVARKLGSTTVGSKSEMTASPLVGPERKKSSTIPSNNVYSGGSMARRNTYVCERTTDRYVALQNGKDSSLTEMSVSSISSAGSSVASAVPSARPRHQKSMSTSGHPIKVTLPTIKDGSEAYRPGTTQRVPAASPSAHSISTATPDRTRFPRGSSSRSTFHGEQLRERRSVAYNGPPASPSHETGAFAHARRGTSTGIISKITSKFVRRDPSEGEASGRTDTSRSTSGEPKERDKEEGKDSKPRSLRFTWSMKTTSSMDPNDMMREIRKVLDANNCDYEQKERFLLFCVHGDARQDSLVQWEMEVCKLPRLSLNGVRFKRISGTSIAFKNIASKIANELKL
Sequence of UniProt Q14680 (Q14680 whole entry, looked up): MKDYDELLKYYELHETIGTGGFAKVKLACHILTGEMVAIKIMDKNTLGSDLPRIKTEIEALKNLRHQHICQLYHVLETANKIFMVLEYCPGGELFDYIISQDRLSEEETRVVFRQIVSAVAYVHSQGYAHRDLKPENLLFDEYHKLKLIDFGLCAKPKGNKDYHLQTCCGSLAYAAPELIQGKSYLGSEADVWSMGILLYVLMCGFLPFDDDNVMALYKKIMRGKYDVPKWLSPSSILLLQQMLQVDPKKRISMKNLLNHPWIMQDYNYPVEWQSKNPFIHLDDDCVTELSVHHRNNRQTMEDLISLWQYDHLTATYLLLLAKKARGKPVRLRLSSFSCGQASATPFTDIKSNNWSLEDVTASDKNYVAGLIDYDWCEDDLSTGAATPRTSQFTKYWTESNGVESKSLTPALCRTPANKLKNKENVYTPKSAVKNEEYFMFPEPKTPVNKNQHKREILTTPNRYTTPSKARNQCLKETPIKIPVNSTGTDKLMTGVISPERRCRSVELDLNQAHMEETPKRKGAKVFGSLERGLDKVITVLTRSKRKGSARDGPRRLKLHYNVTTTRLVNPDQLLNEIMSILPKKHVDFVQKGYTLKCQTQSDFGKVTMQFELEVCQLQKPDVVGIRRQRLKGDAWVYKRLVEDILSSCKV
Sequence of UniProt P27448 (P27448 whole entry, looked up): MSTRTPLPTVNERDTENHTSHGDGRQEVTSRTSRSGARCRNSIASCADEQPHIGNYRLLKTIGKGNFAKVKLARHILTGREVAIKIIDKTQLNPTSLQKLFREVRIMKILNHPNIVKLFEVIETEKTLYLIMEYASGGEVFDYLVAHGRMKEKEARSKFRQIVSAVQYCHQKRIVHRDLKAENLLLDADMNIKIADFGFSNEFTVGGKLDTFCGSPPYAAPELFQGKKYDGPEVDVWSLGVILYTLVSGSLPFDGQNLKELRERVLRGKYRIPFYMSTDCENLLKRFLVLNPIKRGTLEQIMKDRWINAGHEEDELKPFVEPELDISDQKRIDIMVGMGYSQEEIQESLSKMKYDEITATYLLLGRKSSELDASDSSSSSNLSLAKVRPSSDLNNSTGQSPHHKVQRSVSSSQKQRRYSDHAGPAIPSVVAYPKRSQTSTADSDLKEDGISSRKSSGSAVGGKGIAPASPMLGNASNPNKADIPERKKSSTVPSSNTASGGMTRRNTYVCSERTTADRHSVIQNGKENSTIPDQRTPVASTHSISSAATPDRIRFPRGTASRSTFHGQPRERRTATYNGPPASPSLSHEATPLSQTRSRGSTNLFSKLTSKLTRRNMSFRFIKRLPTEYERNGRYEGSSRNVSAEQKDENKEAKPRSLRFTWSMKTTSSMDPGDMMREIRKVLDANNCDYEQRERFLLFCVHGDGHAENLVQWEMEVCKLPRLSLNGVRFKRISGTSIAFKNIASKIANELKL
Sequence of UniProt Q9HBH9 (Q9HBH9 whole entry, looked up): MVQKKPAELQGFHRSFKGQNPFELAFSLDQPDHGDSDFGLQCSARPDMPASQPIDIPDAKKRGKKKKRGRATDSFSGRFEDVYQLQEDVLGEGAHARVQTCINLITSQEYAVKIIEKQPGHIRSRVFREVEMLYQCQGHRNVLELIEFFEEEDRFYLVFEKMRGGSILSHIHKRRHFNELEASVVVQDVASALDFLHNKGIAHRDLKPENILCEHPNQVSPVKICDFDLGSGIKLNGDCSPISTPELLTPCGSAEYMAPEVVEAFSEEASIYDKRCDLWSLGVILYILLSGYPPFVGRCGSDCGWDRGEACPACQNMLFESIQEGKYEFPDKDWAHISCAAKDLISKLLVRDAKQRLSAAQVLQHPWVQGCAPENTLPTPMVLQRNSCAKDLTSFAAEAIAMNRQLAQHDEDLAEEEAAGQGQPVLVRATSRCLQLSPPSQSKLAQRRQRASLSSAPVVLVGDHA
Sequence of UniProt P53355 (P53355 whole entry, looked up): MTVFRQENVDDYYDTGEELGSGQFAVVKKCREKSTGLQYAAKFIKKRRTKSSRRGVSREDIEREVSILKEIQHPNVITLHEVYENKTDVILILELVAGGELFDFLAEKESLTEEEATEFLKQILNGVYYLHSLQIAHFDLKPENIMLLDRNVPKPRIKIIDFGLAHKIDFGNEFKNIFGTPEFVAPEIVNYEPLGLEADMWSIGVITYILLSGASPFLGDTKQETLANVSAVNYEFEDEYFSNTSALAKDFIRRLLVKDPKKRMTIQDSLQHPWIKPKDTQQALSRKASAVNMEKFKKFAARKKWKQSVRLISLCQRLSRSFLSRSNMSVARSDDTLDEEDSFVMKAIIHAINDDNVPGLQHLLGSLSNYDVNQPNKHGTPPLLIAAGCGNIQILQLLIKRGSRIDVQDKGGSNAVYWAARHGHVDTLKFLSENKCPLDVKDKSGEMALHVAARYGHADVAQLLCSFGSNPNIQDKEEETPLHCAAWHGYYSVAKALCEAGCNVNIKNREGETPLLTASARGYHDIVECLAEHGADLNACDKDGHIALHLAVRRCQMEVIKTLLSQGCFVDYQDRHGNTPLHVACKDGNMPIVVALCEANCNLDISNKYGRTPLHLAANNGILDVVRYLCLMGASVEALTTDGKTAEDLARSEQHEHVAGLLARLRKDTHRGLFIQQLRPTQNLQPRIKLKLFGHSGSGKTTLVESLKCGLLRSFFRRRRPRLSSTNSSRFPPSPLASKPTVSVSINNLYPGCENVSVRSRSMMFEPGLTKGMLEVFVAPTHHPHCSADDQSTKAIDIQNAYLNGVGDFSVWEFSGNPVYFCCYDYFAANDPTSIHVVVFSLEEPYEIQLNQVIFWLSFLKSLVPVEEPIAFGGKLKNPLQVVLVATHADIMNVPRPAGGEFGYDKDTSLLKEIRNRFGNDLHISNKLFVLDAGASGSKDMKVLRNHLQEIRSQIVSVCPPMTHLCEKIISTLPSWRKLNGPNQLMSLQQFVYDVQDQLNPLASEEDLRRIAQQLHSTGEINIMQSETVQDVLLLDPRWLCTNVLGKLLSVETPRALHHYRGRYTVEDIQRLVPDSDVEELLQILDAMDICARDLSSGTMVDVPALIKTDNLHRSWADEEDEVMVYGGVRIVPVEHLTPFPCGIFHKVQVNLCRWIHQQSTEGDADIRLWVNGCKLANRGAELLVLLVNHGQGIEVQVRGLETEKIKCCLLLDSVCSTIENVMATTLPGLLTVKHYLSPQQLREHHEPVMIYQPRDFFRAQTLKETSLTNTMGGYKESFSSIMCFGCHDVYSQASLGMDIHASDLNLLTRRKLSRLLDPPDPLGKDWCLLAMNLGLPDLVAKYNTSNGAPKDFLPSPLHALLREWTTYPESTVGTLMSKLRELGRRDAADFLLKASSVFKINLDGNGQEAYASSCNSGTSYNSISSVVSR

Structure (SMILES)	inhibition [1] [%]	inhibition [2] [%]	inhibition [3] [%]	inhibition [4] [%]	inhibition [5] [%]	inhibition [6] [%]	inhibition [7] [%]	inhibition [8] [%]	inhibition [9] [%]	inhibition [10] [%]	inhibition [11] [%]	inhibition [12] [%]	inhibition [13] [%]	inhibition [14] [%]	inhibition [15] [%]	inhibition [16] [%]	inhibition [17] [%]	inhibition [18] [%]	inhibition [19] [%]	inhibition [20] [%]
NC(=O)CCc1ccccc1Oc1nccc(-c2c(-c3ccc(F)cc3)ncn2C2CCNCC2)n1	1.27	-1.23	-2.17	-2.03	-1.25	23.2	34	1.38	0.03	-0.53	-0.22	1.7	1.06	-0.36	1.03	-0.54	-1.06	-1.56	-1.03	0.46
O=C(O)c1ccc(Oc2nccc(-c3c(-c4ccc(F)cc4)ncn3C3CCNCC3)n2)cc1	7.15	0.12	2.05	3.56	5.11	13.3	–	1.28	3.37	1.78	4.41	2.12	2.33	4.49	11.4	4.3	2.69	1.37	2.78	2.25
CS(=O)(=O)c1ccc(Oc2nccc(-c3c(-c4ccc(F)cc4)ncn3C3CCNCC3)n2)cc1	-0.74	4.13	1.66	2.08	0.58	11.4	27.6	1.44	1.65	1.71	1.04	2.08	2.71	2.75	5.71	2.85	3.29	-0.37	-2.48	-2.4
CC(C)(C)c1ccc(Oc2nccc(-c3c(-c4ccc(F)cc4)ncn3C3CCNCC3)n2)cc1	-2.5	0.28	1.27	1.56	0.83	33.8	36.2	1.44	5.2	0.67	0.9	1.46	3.82	2.02	10	2.19	3.63	0.17	1.27	-3
Fc1ccc(-c2ncn(C3CCNCC3)c2-c2ccnc(Oc3cccc(C(F)(F)F)c3)n2)cc1	7.45	0.49	3.67	1.76	1.85	14.7	28.9	3.6	3.58	3.1	4.6	3.47	2.99	3.33	5.2	2.89	2.55	0.48	0.21	0.95
Fc1ccc(Oc2nccc(-c3c(-c4ccc(F)cc4)ncn3C3CCNCC3)n2)cc1	3.27	-3.47	-0.14	1.74	4.04	23.1	36	1.42	1.49	1.87	2.38	2.08	1.09	7.41	11.7	1.88	1.54	2.38	2.64	1.92
Cc1cccc(Oc2nccc(-c3c(-c4ccc(F)cc4)ncn3C3CCNCC3)n2)c1C	11.5	-1.03	2.47	5.06	4.26	41.4	46.3	3.59	4.89	4.26	5.13	2.67	4.11	5.07	4.62	1.17	1.26	-1.52	-1.94	1.21
Fc1ccc(-c2ncn(C3CCNCC3)c2-c2ccnc(Oc3cccc(F)c3)n2)cc1	-5.12	0.92	1.85	-0.26	0.16	22.8	28.5	2.03	4.83	2.73	2.96	1.49	2.54	6.14	8.59	3.77	8.14	2.53	6.08	1.88
O=C1NC(=O)C(c2cccc([N+](=O)[O-])c2)=C1Nc1cc(Cl)c(O)c(Cl)c1	1.81	-0.59	1.71	0.37	0.31	1.45	1.9	1.11	6.27	-0.59	6.69	2.11	6.06	-2.15	-3.64	1.73	3.09	1.49	2.79	-1.88
COc1ccccc1C1=C(Nc2ccccc2)C(=O)NC1=O	-4.37	-0.44	3.12	-1.03	-1.51	-1.88	0.18	3.1	15.2	6.52	28.3	2.24	13.2	3.75	2.36	2.43	8.76	1.34	5.14	-0.33
COc1ccccc1Oc1nccc(-c2c(-c3ccc(F)cc3)ncn2C2CCNCC2)n1	-5.02	1.98	1.2	-0.91	-1.38	29.7	30.9	–	–	1.99	8.11	3.03	6.36	6.61	7.7	3.93	6.48	–	3.83	1.73
Fc1ccc(-c2ncn(C3CCNCC3)c2-c2ccnc(Oc3ccc(Cl)cc3)n2)cc1	–	0.53	0.56	-3.24	-3.38	21.7	30	1.08	2.02	0.86	-0.77	0.37	1.32	2.83	4.47	1.99	2.51	1.24	2.75	0.75
O=C1NC(=O)C(c2ccccc2)=C1Nc1ccccc1	-2.71	0.98	0.16	0.27	0.09	0.14	-0.05	4.41	9.02	2.73	10.4	4.04	4.27	4.35	6.7	7.14	17.3	2.31	8.75	0.17
O=C1NC(=O)C(c2ccccc2Cl)=C1Nc1cc(Cl)c(O)c(Cl)c1	4.61	0.87	-0.88	1.89	2.62	1.73	4.25	2.18	4.62	-0.68	6.23	0.15	1.48	2.15	4.51	3.53	8.39	2.01	4.98	-0.74
